# Assay results reported in PubChem BioAssay AID651820 (National Center for Advancing Translational Sciences (NCATS), 2012).
# Among all 340,000 compounds or so, about 12,000 (3.5%) were called active. This list was built around the results that the source calls inconclusive (neither active nor inactive); the mix of calls is not that of the screen. Calls come from the whole dose curve; as a rule, active = well fitted inhibition curve with a large enough effect; inconclusive = small, poorly fitted or top-dose-only effect, or another doubt; inactive = no such curve, though single readings can be large or run the other way. No potency is given beside an inconclusive call; the fits are too rough. Some compounds were tested as several samples or in several runs, with calls that do not always agree.
# Test: qHTS Assay for Inhibitors of Hepatitis C Virus (HCV)
# Details: Huh7.5.1 HCVcc-Cre (HCVcc is cell-culture hepatitis C virus) infection, luciferase reporter, 44 h; activity change, negative = inhibition: at 41.8 µM (top of the series) unless noted
# Outline: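 Whole-lifecycle infectious HCVcc-Cre system; cells 1,000/well, compound then virus (~0.5 moi) added 4 h after plating, 44 h culture. Luciferase read 15 sec following 15 min substrate incubation, room temp.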
# % is set by controls: 0 for no effect and ±100 for the full control effect; potency is the fitted concentration of half-maximal effect; tags give direction and shape of the fitted curve.
SMILES,Potency,"activity change, negative = inhibition"
COc1cc(OC)cc(C(=O)NC(C(=O)Nc2ccc(N3CCOCC3)cc2)C(C)C)c1 (configuration not stated),"inconclusive [inhibitor, single point]",
COc1c(S(=O)(=O)N2CCCC2)ccc(Cl)c1Cl,"inconclusive [inhibitor, single point]",
CC1=CC(=O)O[C@@H]1[C@@]1(C)C[C@H]2OC(=O)C[C@H]3[C@@H](C)C(=O)C(O)=C1[C@@]23CO,"inconclusive [inhibitor, full curve]",
COc1ccc(NS(=O)(=O)c2ccc(-c3cnc(C4CC4)o3)cc2)cc1OC,"inconclusive [inhibitor, partial curve]",
CCCCNC(=O)c1cn(CC)c2cc(N3CCN(C)CC3)c(F)cc2c1=O,"inconclusive [inhibitor, full curve]",
CCCCNC(=S)NC(=O)c1ccc(Cl)cc1Cl,"inconclusive [inhibitor, single point]",
COC(=O)Cc1ccc(NC(=O)c2ccc3c(c2)C(=O)N(Cc2cccnc2)C3=O)cc1,,inactive: 4.04%
CSCCC(NC(=O)c1ccc([N+](=O)[O-])cc1Cl)C(=O)OC(C)C(=O)NCc1ccco1 (configuration not stated),,inactive: 0.221%
O=C(CSc1nnc(CNC(=O)c2cccc(C(F)(F)F)c2)o1)NCC1CCCO1 (configuration not stated),,inactive: 6.44%
O=C(c1ccco1)N1CCN(c2ccc(F)cc2)CC1,,inactive: 23.5%
COc1ccc2[nH]c3ccccc3c2c1,"inconclusive [inhibitor, single point]",
COc1cc(-c2nc3ccc4ccccc4c3c3c2CCC3)cc(OC)c1OC,active: 5.62 µM,
COC(=O)c1cn(CCC#N)nc1-c1ccc2ccccc2c1,"inconclusive [inhibitor, single point]",
CN(C)S(=O)(=O)c1ccc(N2CCCC2)c(C(=O)N2CCN(S(=O)(=O)c3cccc(F)c3)CC2)c1,"inconclusive [inhibitor, full curve, poor fit]",
CCCCOc1ccc2c(C)cc(=O)oc2c1OCCCC,"inconclusive [inhibitor, partial curve]",
CCOC(=O)N1CCC(NC(=O)c2cc(C(=O)NC3CCN(Cc4ccccc4)CC3)ccc2CO)CC1,,inactive: 10.2%
COc1ccc(N2CCN(C(CNC(=O)CC(C)(C)C)c3ccc4c(c3)OCO4)CC2)cc1 (configuration not stated),,inactive: 0.152%
COCCNc1ccc([N+](=O)[O-])cc1C(=O)NC1CCCc2ccccc21 (configuration not stated),active: 12.6 µM,
O=C(COC(=O)C1CC1)NCCNC(=O)COC(=O)C1CC1,"inconclusive [inhibitor, single point]",
CCCN1CCN(C(=O)C2CCN(S(=O)(=O)c3c(C)noc3/C=C/c3ccc(C)cc3)CC2)CC1,"inconclusive [inhibitor, full curve]",
O=C(Nc1nc(-c2ccccc2)cs1)C1CCCCN1S(=O)(=O)c1ccc(Cl)cc1 (configuration not stated),"inconclusive [inhibitor, single point]",
CC(=O)c1sc(NC(=O)C2CCN(C(=O)c3ccc(F)cc3)CC2)nc1-c1ccccc1,"inconclusive [inhibitor, single point]",
COC(CNC(=O)C(=O)NCC1CCCN1S(=O)(=O)c1cccs1)OC (configuration not stated),,inactive: -1.45%

SMILES,Potency,"activity change, negative = inhibition"
Cc1ccc(C)c(NC(=O)C2Cc3ccccc3CN2C(=O)OCc2ccccc2)c1 (configuration not stated),active: 10 µM,
CC1CCCN(S(=O)(=O)c2ccc3[nH]c4c(c3c2)CCCC4)C1 (configuration not stated),"inconclusive [inhibitor, single point]",
CCc1ccc(/C=N/NC(=O)c2c[nH]c3ccccc23)s1,"inconclusive [inhibitor, single point]",
COc1ccc(OC)c(NC(=O)c2oc3c(c2C)C(O)CC(C)(C)C3)c1 (configuration not stated),"inconclusive [inhibitor, single point]",
c1ccc([C@H]2CN3C(=N2)Sc2ccccc23)cc1,"inconclusive [inhibitor, partial curve]",
CCOC(=O)N1CCN(C(=O)/C(=C/c2ccc(OC)cc2)NC(=O)c2ccccc2)CC1,,inactive: -1%
O=C(CN(Cc1ccccc1)S(=O)(=O)c1ccc2c(c1)OCCO2)N/N=C/c1cccc(Br)c1,"inconclusive [inhibitor, single point]",
COc1cc(NC(=O)COc2ccccc2Cl)ccc1NC(=O)C(C)C,"inconclusive [inhibitor, partial curve]",
Cc1cn(-c2cc(C(=O)Nc3ccc(C)c(NC(=O)C(=O)c4c[nH]c5ccccc45)c3)cc(C(F)(F)F)c2)cn1,"inconclusive [inhibitor, full curve, poor fit]",
Cc1ccc(-n2nc3c(=O)n(CC(=O)NCCc4cccs4)nc(C)c3c2C)cc1,"inconclusive [inhibitor, single point]",
CCCCNC(=O)Nc1ccc(Br)cn1,"inconclusive [inhibitor, single point]",
COc1cccc(CNC(=O)Cn2ccc3cc(S(=O)(=O)N4CCCCCC4)ccc32)c1OC,"inconclusive [inhibitor, single point]",
COc1ccc(CCN(C)C(=O)c2cccc(S(=O)(=O)N3CCN(c4ccc(F)cc4)CC3)c2)cc1OC,active: 2.82 µM,
Nc1c(C(=O)NC2CCCC2)sc2nc(-c3cccs3)ccc12,"inconclusive [inhibitor, partial curve]",
COc1ccc(N(CC(=O)Nc2ccc(Cc3ccncc3)cc2)S(=O)(=O)c2ccccc2)cc1,"inconclusive [inhibitor, single point]",
Cc1ccc(NC(=O)CN(C)C(=O)c2cccc(Br)c2)cc1,,inactive: -24.4%
N#C/C(=C\c1ccc(O)c(O)c1)C(=O)NCCCc1ccccc1,"inconclusive [inhibitor, full curve]",
NNC(=O)c1cccn(Cc2cccc(C(F)(F)F)c2)c1=O,"inconclusive [inhibitor, single point]",
O=C(O)c1ccc2c(c1)C(=O)N(c1cc([N+](=O)[O-])ccn1)C2=O,,inactive: 20.4%
COc1ccc(C(=O)NCC(c2cccs2)N2CCc3ccccc32)c(OC)c1 (configuration not stated),"inconclusive [inhibitor, full curve]",
CN1CCN(c2ccccc2NC(=O)c2ccc(Br)o2)CC1,"inconclusive [inhibitor, single point]",
CN(Cc1ccon1)Cc1cn(C)nc1-c1ccc2c(c1)OCCO2,,inactive: 13.5%
Cc1cc(N/N=C/c2ccc(O)cc2)c2cccc(C)c2n1,"inconclusive [inhibitor, single point]",

SMILES,Potency,"activity change, negative = inhibition"
CC1(C)Cc2c(sc3c2c(=N)n(Cc2ccco2)c(=O)n3CC(=O)Nc2cccc(Cl)c2)CO1,"inconclusive [inhibitor, single point]",
CCOc1cc(-c2c(C)c(CC)nc(N)c2C#N)ccc1O,"inconclusive [inhibitor, single point]",
O=C(NCC1CCN(Cc2ccccc2Cl)CC1)Nc1ccccc1F,"inconclusive [inhibitor, single point]",
CCOc1ccc(NC(=S)c2ccncc2)cc1,"inconclusive [inhibitor, single point]",
O=C(CSc1ncnc2sc3c(c12)CCCC3)N1CCC(c2noc3ccc(F)cc23)CC1,active: 11.2 µM,
O=C(NCCc1ccccc1)C(=O)NCC1OCCN1S(=O)(=O)c1ccc(Br)cc1 (configuration not stated),"inconclusive [inhibitor, single point]",
Cc1cc(/C=C2\C(=O)NN(c3ccccc3)C2=O)c(C)n1-c1ccccc1O,"inconclusive [inhibitor, full curve, poor fit]",
CCCC[n+]1c(-c2ccc(Cl)cc2Cl)csc1Nc1ccccc1,"inconclusive [inhibitor, single point]",
CCn1c(SCC(=O)Nc2cc3oc4ccccc4c3cc2OC)nnc1-c1cccs1,active: 10 µM,
O=S(=O)(c1ccccc1)N1CCC(O)(CSc2ccc(Cl)cc2)CC1,active: 3.55 µM,
Cc1ccc(SCc2[nH]nc3c2C2(CCSCC2)C(C#N)=C(N)O3)cc1,,inactive: -5.32%
COc1ccccc1CNC(=O)COC(=O)Cc1c[nH]c2ccccc12,,inactive: 15.9%
Cc1nn(C)c(C)c1CN(C)S(=O)(=O)c1ccc2ccccc2c1,"inconclusive [inhibitor, full curve]",
CCN(CC)Cc1ccccc1CNC(=O)c1cccc(S(=O)(=O)Nc2ccc3c(c2)OCO3)c1,"inconclusive [inhibitor, single point]",
COc1ccc(/C=N/Nc2nncc3ccccc23)cc1,"inconclusive [inhibitor, single point]",
Cn1ccc(C(=O)NC(=S)N2CCSCC2)n1,,inactive: 6.42%
COc1cc(C(=O)NC(C)C2CC3CCC2C3)ccc1OC(F)F (configuration not stated),"inconclusive [inhibitor, partial curve]",
COc1ccc(C(=O)Nc2ccc(N3CCOCC3)cc2)cc1S(=O)(=O)N1CCOCC1,"inconclusive [inhibitor, single point]",
Cc1ccccc1NS(=O)(=O)c1ccc(C(=O)N2CCN(c3ccccn3)CC2)cc1,"inconclusive [inhibitor, partial curve, poor fit]",
COc1cc(CC(=O)N(C)CC(=O)Nc2ccc(Cl)c(C(F)(F)F)c2)cc(OC)c1OC,"inconclusive [inhibitor, full curve]",
COC(=O)CCS(=O)(=O)c1nc(-c2ccccc2)cc(C(F)(F)F)n1,"inconclusive [inhibitor, single point]",
